How the values were obtained:
[1] = molecular target: T1, DmNobo (recombinant Noppera-bo) (Drosophila melanogaster, UniProt Q7JYX0); conditions: for inhibitory activity against DmNobo (in words): 3,4-DNADCF assay
[2] = molecular target: AeNobo (recombinant Noppera-bo) (Aedes aegypti, UniProt A0A1S4FIB3)
[3] = test system: mitochondrial respiration in HeLa cells; experiment: Measurement of mitochondrial respiration (OCR/ECAR, Seahorse XFe96 extracellular flux analyzer); conditions: OCR/ECAR phenotype
[4] = molecular target: T1, DmNobo (recombinant Noppera-bo); design: method as in PMID 35172816, PMID 32241910, PMID 33746549; conditions: previous high-throughput screens; cited from earlier work

T1 sequence (Q7JYX0 whole entry): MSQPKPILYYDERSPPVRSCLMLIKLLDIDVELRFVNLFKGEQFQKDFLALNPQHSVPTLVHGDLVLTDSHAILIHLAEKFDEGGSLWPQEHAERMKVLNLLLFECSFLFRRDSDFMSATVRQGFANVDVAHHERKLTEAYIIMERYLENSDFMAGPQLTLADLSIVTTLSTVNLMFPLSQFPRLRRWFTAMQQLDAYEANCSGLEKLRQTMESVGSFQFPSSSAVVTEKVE

Compound	IC50 [1] [µM]	IC50 [2] [µM]	inhibitory activity against DmNobo (in words) [1]	mitochondrial inhibitory activity (in words) [3]	DmNobo inhibition (in words) [4]
C/C=C/C=C/[C@@H]1C(C)=C[C@@H]2C[C@@H](C)CC[C@@H]2[C@@]1(C)C(=O)C1=C(O)[C@@H](CO)NC1=O [Compound 4, N-demethyl-cis-phomasetin]	9.04 ± 3.32	> 20			
CC[C@H](C)C(=O)O[C@H]1CCC=C2C=C[C@H](C)[C@H](CC[C@@H]3C[C@@H](O)CC(=O)O3)[C@H]21 [mevastatin, reference compound]			little effect		
C/C=C/C=C/[C@H]1C(C)=C[C@H]2C[C@@H](C)CC[C@@H]2[C@@]1(C)C(=O)C1=C(O)[C@@H](CO)NC1=O [Compound 5, N-demethylphomasetin]	16.1 ± 1.33	> 20	moderate activity		
C/C=C/[C@H]1C=C[C@H]2C[C@H](C)CC[C@H]2[C@]1(C)C(=O)C1=C(O)[C@H](CO)N(C)C1=O [Compound 3, cis-equisetin]	8.04 ± 2.72	> 20		higher mitochondrial inhibitory activity than the trans isomer 1	
C[C@]12CC[C@@H]3c4ccc(O)cc4CC[C@H]3[C@@H]1CC[C@@H]2O [17β-estradiol]					identified as a DmNobo inhibitor
C/C=C/C=C/[C@H]1C(C)=C[C@H]2C[C@@H](C)CC[C@@H]2[C@@]1(C)C(=O)C1=C(O)[C@@H](CO)N(C)C1=O [Compound 2, phomasetin]		> 20	moderate activity		
C/C=C/[C@@H]1C=C[C@@H]2C[C@H](C)CC[C@H]2[C@]1(C)C(=O)C1=C(O)[C@H](CO)N(C)C1=O [Compound 1, equisetin]	16.4 ± 1.24	> 20	moderate activity		
